“And” between values parts separate entries of the source, which are not always exact repeats. Equal entries are not always repeated. Inconclusive results, whose numbers are uncertain, are shown with a selection of clear calls. For some of these results: Potencies of inconclusive entries are doubtful fits and often do not repeat. Where a structure was tested more than once in an assay, its records may differ in their call. The source made the active and inactive calls. Unless noted, calls follow the shape of the dose curve; as a rule, active = well fitted curve in the direction sought with a large enough effect in the repeat runs; inconclusive = weak or mixed curves; inactive = no such curve, though single readings can be large; an effect the other way counts as inactive or inconclusive.
What was measured:
[1] = qHTS assay to identify small molecule agonists of the TGF-beta/Smad signaling pathway - cell viability counter screen (AID 1346829); details: SBE-bla HEK293T viability, CellTiter-Glo luminescence, 5 h; series mostly up to 76.8 µM; also: nearly all actives have a fitted effect of over 45% in size; also: potency is read from the fitted curve at half-maximal effect
In short: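 In parallel with the Smad reporter read, viability of HEK 293T cells stably carrying SBE-bla is quantified by ATP luminescence following 5 hr compound treatment.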

[2] = Caspase-3/7 induction in HepG2 cells by small molecules, qHTS assay (AID 1346978); details: HepG2 caspase-3/7 activation, Caspase-Glo luminescence, 17 h; series mostly up to 92.4 µM; also: % is scaled to controls: 0 for no effect and ±100 for the full control effect; nearly all actives have a fitted effect of over 15% in size
In short: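 Wild-type HepG2 cells (2,000/well) were settled 5 h at 37 C, 5% CO2, then exposed to compounds in DMSO for 17 h. Caspase-3/7 activity was read by luminescence 30 min after adding Caspase-Glo 3/7 reagent at room temperature.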

[3] = Caspase-3/7 induction in CHO-K1 cells by small molecules, qHTS cell viability counter screen (AID 1346979); details: CellTiter-Fluor fluorescence, 17 h; series mostly up to 92.4 µM; also: potency is read from the fitted curve at half-maximal effect; nearly all actives have a fitted effect of over 35% in size
In short: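 Wild-type CHO-K1 cells were seeded at 1,500 per well, rested 5hr at 37 C, then exposed to compounds in DMSO. After 16hr, CellTiter-Fluor reagent was added and fluorescence read 1hr later as the viability measure.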

[4] = target: Nuclear receptor subfamily 1 group I member 2 (Homo sapiens) (UniProt O75469); experiment: Human pregnane X receptor (PXR) small molecule agonists, qHTS assay (AID 1346982); details: PXR-Luc HepG2, CYP3A4 luciferase reporter, 24 h; series mostly up to 92.4 µM; also: potency is read from the fitted curve at half-maximal effect; nearly all actives have a fitted effect of over 35% in size
In short: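 Compound-induced hPXR transactivation of a CYP3A4 luciferase reporter was scored in HepG2 PXR-Luc cells over 24 hr at 37 C, 5% CO2, by luminescence.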

[5] = qHTS assay to identify small molecule agonists of the TGF-beta/Smad signaling pathway (AID 1346859; active = well fitted activation curve with a large enough effect in the signal ratio in the repeat runs, not every such curve was filed as active; inconclusive = weak or mixed curves; the % refers to the signal ratio; also: potency is read from the fitted curve at half-maximal effect); details: SBE-bla HEK293T, TGF-beta/Smad beta-lactamase reporter, 5 h; activation: at 76.8 µM (top of the series) unless noted
In short: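 HEK 293T cells stably carrying a beta-lactamase reporter driven by the Smad binding element were seeded overnight, exposed to DMSO-dissolved compounds for 5 hr at 37 C, 5% CO2, then loaded with FRET substrate for 2 hr at room temperature.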

[6] = qHTS assay to identify small molecule antagonists of the TGF-beta/Smad signaling pathway (AID 1346924; active = well fitted inhibition curve with a large enough effect in the signal ratio in the repeat runs, not every such curve was filed as active; inconclusive = weak or mixed curves; the % refers to the signal ratio; also: potency is read from the fitted curve at half-maximal effect); details: SBE-bla HEK293T, TGF-beta/Smad reporter, beta-lactamase ratio; activity, negative = inhibition: at 76.8 µM (top of the series) unless noted
In short: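 SBE-bla HEK 293T cells were plated overnight, then received compound in DMSO plus TGF-beta1 (added as a 0.25 ng/mL solution) and were incubated 5 h at 37 C. Beta-lactamase reporter activity was read after 2 h at room temperature with LiveBLAzer B/G FRET substrate (ex 405, em 460/530 nm).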

[7] = Human pregnane X receptor (PXR) small molecule agonists, qHTS cell viability counter screen (AID 1346977); details: PXR-Luc HepG2 viability, CellTiter-Fluor, 24 h; series mostly up to 92.4 µM; also: potency is read from the fitted curve at half-maximal effect; nearly all actives have a fitted effect of over 50% in size
In short: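 PXR-Luc HepG2 cells in medium with 5% charcoal-stripped FBS were pre-incubated 5hr, then exposed to compounds for 24hr at 37C. Viability was read in the same wells by CellTiter-Fluor fluorescence, reagent added after 23hr with a 1hr incubation.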

[8] = Caspase-3/7 induction in CHO-K1 cells by small molecules, qHTS assay (AID 1346980); details: CHO-K1 caspase-3/7 induction, Caspase-Glo luminescence, 17 h; series mostly up to 92.4 µM; also: potency is read from the fitted curve at half-maximal effect; nearly all actives have a fitted effect of over 15% in size
In short: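 Wild-type cells were seeded at 1,500 per well and settled 5 hr at 37 C, 5% CO2, then exposed to DMSO-dissolved compounds for 17 hr. Caspase-Glo 3/7 reagent was added, and luminescence was read after 30min at room temperature.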

[9] = target: Acetylcholinesterase (Homo sapiens) (UniProt P22303); experiment: Acetylcholinesterase (AChE) small molecule antagonists: enzyme-based qHTS assay (AID 1347397; calls by dose curve; also: potency is read from the fitted curve at half-maximal effect; nearly all actives have a fitted effect of over 55% in size); details: Potency: AChE enzyme activity inhibition; series mostly up to 115 µM
In short: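 Human recombinant acetylcholinesterase; substrate acetylthiocholine; thiocholine quantified with DTNB (colorimetric). Compound preincubation 30 min RT; reaction 10 min RT.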

[10] = target: Cytochrome P450 2D6 (Homo sapiens) (UniProt P10635); experiment: Cytochrome P450 Family 2 Subfamily D Member 6 (CYP2D6) small molecule antagonists: luciferase reporter qHTS assay (AID 1671196); details: P450-Glo CYP2D6 enzyme assay, luciferin luminescence, 1 h; series mostly up to 115 µM; also: potency is read from the fitted curve at half-maximal effect; nearly all actives have a fitted effect of over 50% in size
In short: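 Each well received CYP2D6 with its proluciferin substrate and chemical, sat 10 min, then got NADPH regeneration solution for 1 h at room temperature. Luminescence in RLU served as the activity measure.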
Tags tell the direction and shape of the fitted curve or compound fluorescence and quenching.

UniProt P10635, sequence (P10635 whole entry, looked up): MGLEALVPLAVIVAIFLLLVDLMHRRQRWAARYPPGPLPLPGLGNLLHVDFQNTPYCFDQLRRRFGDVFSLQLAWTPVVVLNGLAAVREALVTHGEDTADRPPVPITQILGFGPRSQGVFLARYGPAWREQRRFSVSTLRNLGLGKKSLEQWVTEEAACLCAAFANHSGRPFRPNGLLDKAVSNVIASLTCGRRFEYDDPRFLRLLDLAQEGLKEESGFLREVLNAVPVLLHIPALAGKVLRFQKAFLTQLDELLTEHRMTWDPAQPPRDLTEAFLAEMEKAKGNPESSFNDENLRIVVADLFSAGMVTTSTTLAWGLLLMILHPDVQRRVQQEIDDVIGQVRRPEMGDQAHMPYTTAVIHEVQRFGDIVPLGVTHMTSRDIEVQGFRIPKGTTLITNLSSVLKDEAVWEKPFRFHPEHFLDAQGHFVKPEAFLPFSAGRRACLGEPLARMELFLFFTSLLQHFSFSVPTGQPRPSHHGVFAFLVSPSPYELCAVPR
UniProt O75469, sequence (O75469 whole entry, looked up): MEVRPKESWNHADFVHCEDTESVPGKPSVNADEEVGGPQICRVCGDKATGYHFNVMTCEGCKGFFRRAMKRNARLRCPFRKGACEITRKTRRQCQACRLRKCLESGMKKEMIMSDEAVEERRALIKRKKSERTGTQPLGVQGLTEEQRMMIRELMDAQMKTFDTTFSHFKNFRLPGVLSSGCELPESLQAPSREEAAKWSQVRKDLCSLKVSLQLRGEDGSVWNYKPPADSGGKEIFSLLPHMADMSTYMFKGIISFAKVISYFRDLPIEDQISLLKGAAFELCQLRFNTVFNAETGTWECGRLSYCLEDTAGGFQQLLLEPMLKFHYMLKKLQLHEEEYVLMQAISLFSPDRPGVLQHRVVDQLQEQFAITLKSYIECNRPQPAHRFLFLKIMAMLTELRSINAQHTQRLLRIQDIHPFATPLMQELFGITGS
UniProt P22303, sequence (P22303 whole entry, looked up): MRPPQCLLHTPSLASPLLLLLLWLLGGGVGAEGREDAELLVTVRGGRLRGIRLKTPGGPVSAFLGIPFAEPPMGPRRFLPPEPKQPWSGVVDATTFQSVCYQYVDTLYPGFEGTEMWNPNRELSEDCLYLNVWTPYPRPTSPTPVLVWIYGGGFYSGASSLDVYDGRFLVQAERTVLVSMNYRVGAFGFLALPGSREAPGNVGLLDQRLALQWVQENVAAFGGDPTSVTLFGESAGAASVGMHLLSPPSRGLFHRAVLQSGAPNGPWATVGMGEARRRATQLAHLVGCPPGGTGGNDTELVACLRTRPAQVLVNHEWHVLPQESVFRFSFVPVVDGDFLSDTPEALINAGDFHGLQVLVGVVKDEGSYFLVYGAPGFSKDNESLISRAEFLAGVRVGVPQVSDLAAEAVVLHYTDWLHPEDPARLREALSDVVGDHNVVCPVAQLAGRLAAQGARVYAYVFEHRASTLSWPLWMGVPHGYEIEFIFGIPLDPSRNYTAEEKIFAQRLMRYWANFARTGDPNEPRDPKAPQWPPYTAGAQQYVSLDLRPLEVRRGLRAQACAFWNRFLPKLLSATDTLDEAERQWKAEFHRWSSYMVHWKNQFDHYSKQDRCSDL

CC1C(=O)C[C@]2(C(C)C)C[C@H]12 (some centres undefined)
inactive: Potency [1] | Potency [2]
inconclusive: Potency [3] 52.8 µM [rising, partial curve] | Potency [4] 59.2 µM [activator, single point]

C[C@]12CCC(=O)C=C1CC[C@@H]1[C@@H]2CC[C@]2(C)C(=O)CC[C@@H]12
inconclusive: Potency [5] 24.1 µM [rising, partial curve] and 38.9 µM [rising, partial curve] | Potency [6] 38.3 µM [rising, partial curve, poor fit] | activity, negative = inhibition [6] -1.71% | Potency [7] 70.8 µM [cytotoxic, single point] | Potency [3] 68.6 µM [cytotoxic, single point] | Potency [8] 26.8 µM [activator, single point] | Potency [4] 33.5 µM [activator, single point] | Potency [9] 87.9 µM [falling, partial curve, poor fit] | Potency [10] 63.3 µM [inhibitor, partial curve, poor fit]

CC1(C)CC/C(=C/c2ccc(Cl)cc2)C1(O)Cn1cncn1 (centres undefined)
active: Potency [10] 12.6 µM
inconclusive: Potency [5] 43.4 µM [fluorescent, partial curve, poor fit] | activity, negative = inhibition [6] -13.5% | Potency [3] 70.8 µM [cytotoxic]

CCOC(=O)Nc1cccc(OC(=O)Nc2ccccc2)c1
inconclusive: Potency [1] 34.7 µM [cytotoxic, partial curve, poor fit] | Potency [10] 39.9 µM [inhibitor, partial curve]

From PubChem BioAssay (Tox21)
